Reference: publication PMC11845791
No constants are given. Whether binding was seen depends on the method and setting. Binding seen in cells or lysates may run through a third protein. Some binding calls cover weakened binding; strength is not graded here. For part of these data: Where a sequence is shown, tags or fusion partners need not be part of it.

T1: hexokinase 1 (HK1), endogenous in H292 isogenic cells (human (endogenous in H292)) (UniProt P19367)
T1 sequence: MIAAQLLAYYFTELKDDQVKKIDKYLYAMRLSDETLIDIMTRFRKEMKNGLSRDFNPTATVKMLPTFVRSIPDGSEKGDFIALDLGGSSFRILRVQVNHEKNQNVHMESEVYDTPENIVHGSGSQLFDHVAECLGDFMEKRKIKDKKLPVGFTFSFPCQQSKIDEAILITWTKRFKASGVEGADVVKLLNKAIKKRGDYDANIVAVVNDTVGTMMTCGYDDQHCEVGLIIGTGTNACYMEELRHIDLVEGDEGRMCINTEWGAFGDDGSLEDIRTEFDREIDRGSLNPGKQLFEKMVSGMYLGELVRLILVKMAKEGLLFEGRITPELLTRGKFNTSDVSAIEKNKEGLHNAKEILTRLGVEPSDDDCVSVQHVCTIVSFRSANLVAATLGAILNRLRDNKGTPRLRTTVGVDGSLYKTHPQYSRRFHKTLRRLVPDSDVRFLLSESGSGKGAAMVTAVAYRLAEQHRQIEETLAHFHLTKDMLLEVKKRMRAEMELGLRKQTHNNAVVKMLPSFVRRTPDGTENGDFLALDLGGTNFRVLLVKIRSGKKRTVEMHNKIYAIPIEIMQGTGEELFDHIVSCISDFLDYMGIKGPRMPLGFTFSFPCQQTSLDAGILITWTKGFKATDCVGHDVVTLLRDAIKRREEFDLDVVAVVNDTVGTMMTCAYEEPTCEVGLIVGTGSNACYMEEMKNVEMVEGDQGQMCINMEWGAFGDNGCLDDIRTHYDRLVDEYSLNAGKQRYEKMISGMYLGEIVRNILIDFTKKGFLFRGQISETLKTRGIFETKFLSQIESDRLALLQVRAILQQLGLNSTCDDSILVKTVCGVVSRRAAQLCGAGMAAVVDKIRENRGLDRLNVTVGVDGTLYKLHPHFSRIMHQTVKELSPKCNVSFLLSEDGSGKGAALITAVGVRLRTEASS

T2: Flag-NPPS (human NPPS with a C-terminal 3 × Flag) (human) (UniProt P22413)
T2 sequence: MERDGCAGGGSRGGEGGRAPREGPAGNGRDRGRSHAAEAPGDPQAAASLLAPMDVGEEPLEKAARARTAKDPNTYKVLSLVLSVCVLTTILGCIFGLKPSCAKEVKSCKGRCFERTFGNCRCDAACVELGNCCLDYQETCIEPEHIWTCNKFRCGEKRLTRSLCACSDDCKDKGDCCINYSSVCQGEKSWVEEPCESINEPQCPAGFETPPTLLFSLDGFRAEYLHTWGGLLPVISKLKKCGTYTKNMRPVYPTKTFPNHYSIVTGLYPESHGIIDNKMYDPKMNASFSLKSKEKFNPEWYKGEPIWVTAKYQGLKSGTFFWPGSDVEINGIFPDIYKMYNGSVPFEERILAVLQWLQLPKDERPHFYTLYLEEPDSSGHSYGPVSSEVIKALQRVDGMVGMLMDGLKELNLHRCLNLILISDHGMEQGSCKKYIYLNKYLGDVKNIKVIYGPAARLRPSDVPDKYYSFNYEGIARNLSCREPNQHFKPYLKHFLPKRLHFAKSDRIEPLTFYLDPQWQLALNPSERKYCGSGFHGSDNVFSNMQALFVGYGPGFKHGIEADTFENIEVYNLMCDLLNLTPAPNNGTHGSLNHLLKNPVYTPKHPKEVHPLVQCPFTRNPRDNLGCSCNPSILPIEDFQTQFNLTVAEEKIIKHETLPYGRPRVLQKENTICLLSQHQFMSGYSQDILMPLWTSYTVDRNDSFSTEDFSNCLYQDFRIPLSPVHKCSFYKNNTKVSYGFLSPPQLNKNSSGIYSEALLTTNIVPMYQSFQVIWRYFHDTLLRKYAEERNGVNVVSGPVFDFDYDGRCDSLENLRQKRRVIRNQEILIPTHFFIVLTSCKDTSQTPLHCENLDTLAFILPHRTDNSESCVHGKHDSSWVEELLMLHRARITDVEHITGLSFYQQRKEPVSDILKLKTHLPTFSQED


Columns and labels:
[1] = biological target: T1, hexokinase 1 (HK1), endogenous in H292 isogenic cells (human (endogenous in H292)); assay: co-IP; endogenous proteins; NP-40 lysates of H292 isogenic cells (KRAS WT and KRAS G12C) incubated with anti-NPPS or anti-HK1 at 4 °C overnight, Protein A/G magnetic beads 3 h; Western blot
[2] = biological target: T2, Flag-NPPS (human NPPS with a C-terminal 3 × Flag) (human); assay: co-IP; HEK293T cells expressing Flag-NPPS or empty vector; NP-40 lysates with anti-FLAG M2 magnetic beads at 4 °C overnight; Western blot for HK1
[3] = biological target: T2, Flag-NPPS (human NPPS with a C-terminal 3 × Flag) (human); assay: co-IP; PC9 cells expressing Flag-NPPS or empty vector; NP-40 lysates with anti-FLAG M2 magnetic beads at 4 °C overnight; Western blot for HK1

Row | binding [1] | binding [2] | binding [3] | Binder
1 | binds |  |  | nucleotide pyrophosphatase (NPPS), endogenous in H292 isogenic cells (protein, UniProt P22413 1-925) MERDGCAGGGSRGGEGGRAPREGPAGNGRDRGRSHAAEAPGDPQAAASLLAPMDVGEEPLEKAARARTAKDPNTYKVLSLVLSVCVLTTILGCIFGLKPSCAKEVKSCKGRCFERTFGNCRCDAACVELGNCCLDYQETCIEPEHIWTCNKFRCGEKRLTRSLCACSDDCKDKGDCCINYSSVCQGEKSWVEEPCESINEPQCPAGFETPPTLLFSLDGFRAEYLHTWGGLLPVISKLKKCGTYTKNMRPVYPTKTFPNHYSIVTGLYPESHGIIDNKMYDPKMNASFSLKSKEKFNPEWYKGEPIWVTAKYQGLKSGTFFWPGSDVEINGIFPDIYKMYNGSVPFEERILAVLQWLQLPKDERPHFYTLYLEEPDSSGHSYGPVSSEVIKALQRVDGMVGMLMDGLKELNLHRCLNLILISDHGMEQGSCKKYIYLNKYLGDVKNIKVIYGPAARLRPSDVPDKYYSFNYEGIARNLSCREPNQHFKPYLKHFLPKRLHFAKSDRIEPLTFYLDPQWQLALNPSERKYCGSGFHGSDNVFSNMQALFVGYGPGFKHGIEADTFENIEVYNLMCDLLNLTPAPNNGTHGSLNHLLKNPVYTPKHPKEVHPLVQCPFTRNPRDNLGCSCNPSILPIEDFQTQFNLTVAEEKIIKHETLPYGRPRVLQKENTICLLSQHQFMSGYSQDILMPLWTSYTVDRNDSFSTEDFSNCLYQDFRIPLSPVHKCSFYKNNTKVSYGFLSPPQLNKNSSGIYSEALLTTNIVPMYQSFQVIWRYFHDTLLRKYAEERNGVNVVSGPVFDFDYDGRCDSLENLRQKRRVIRNQEILIPTHFFIVLTSCKDTSQTPLHCENLDTLAFILPHRTDNSESCVHGKHDSSWVEELLMLHRARITDVEHITGLSFYQQRKEPVSDILKLKTHLPTFSQED
2 |  | binds | binds | HK1 in HEK293T and PC9 cells expressing Flag-NPPS (Fig. S5a, b) (protein, UniProt P19367-1 1-917) MIAAQLLAYYFTELKDDQVKKIDKYLYAMRLSDETLIDIMTRFRKEMKNGLSRDFNPTATVKMLPTFVRSIPDGSEKGDFIALDLGGSSFRILRVQVNHEKNQNVHMESEVYDTPENIVHGSGSQLFDHVAECLGDFMEKRKIKDKKLPVGFTFSFPCQQSKIDEAILITWTKRFKASGVEGADVVKLLNKAIKKRGDYDANIVAVVNDTVGTMMTCGYDDQHCEVGLIIGTGTNACYMEELRHIDLVEGDEGRMCINTEWGAFGDDGSLEDIRTEFDREIDRGSLNPGKQLFEKMVSGMYLGELVRLILVKMAKEGLLFEGRITPELLTRGKFNTSDVSAIEKNKEGLHNAKEILTRLGVEPSDDDCVSVQHVCTIVSFRSANLVAATLGAILNRLRDNKGTPRLRTTVGVDGSLYKTHPQYSRRFHKTLRRLVPDSDVRFLLSESGSGKGAAMVTAVAYRLAEQHRQIEETLAHFHLTKDMLLEVKKRMRAEMELGLRKQTHNNAVVKMLPSFVRRTPDGTENGDFLALDLGGTNFRVLLVKIRSGKKRTVEMHNKIYAIPIEIMQGTGEELFDHIVSCISDFLDYMGIKGPRMPLGFTFSFPCQQTSLDAGILITWTKGFKATDCVGHDVVTLLRDAIKRREEFDLDVVAVVNDTVGTMMTCAYEEPTCEVGLIVGTGSNACYMEEMKNVEMVEGDQGQMCINMEWGAFGDNGCLDDIRTHYDRLVDEYSLNAGKQRYEKMISGMYLGEIVRNILIDFTKKGFLFRGQISETLKTRGIFETKFLSQIESDRLALLQVRAILQQLGLNSTCDDSILVKTVCGVVSRRAAQLCGAGMAAVVDKIRENRGLDRLNVTVGVDGTLYKLHPHFSRIMHQTVKELSPKCNVSFLLSEDGSGKGAALITAVGVRLRTEASS
